What was measured:
[1] = test system: DENV-2 strain D2Y98P; assay: Viral titer reduction assay, DENV-2 strain D2Y98P; conditions: Dengue virus, DENV2, Huh-7; viral titer reduction assay on Huh7 cells
Procedure: Viral Titer Reduction Assay. Huh7 cells were seeded in a 96-well plate. The next day, cells were infected with DENV-2 strains NGC or D2Y98P at a MOI of 0.3 in the presence of 2-fold serial dilutions of compounds. Experiments were performed in triplicates. After incubation at 37° C. for 48 h, cell culture fluids were harvested. The infectious viruses in the culture fluids were determined by plaque assay using a protocol as described previously.^48 The EC50 values were calculated using four parameter logistic regression in GraphPad software Prism 8.0.

[2] = test system: DENV-2 strain D2Y98P; assay: In vivo efficacy, dengue viremia A129 mouse model; conditions: 100 mg/kg orally twice daily for 3 days
Procedure: In Vivo Efficacy Studies. Animal studies were performed as approved by the University of Texas Medical Branch (UTMB) Institutional Animal Care and Use Committee (IACUC). All efforts were made to minimize animal suffering. The in vivo efficacy of compound 15 was evaluated in a dengue viremia model.^57 3-week-old A129 mice (with knockout of IFN-α/β receptors) and DENV-2 strain D2Y98P were used in this model. The virus stock was propagated in BHK-21 cells grown in RPMI 1640 medium. 100 µL (10^7 PFU/ml) of D2Y98P viruses were injected subcutaneously (S.C.) into the mice. The mice (n = 6 per group) immediately were dosed orally twice daily (BID) with compound 15 (100 mg/kg) or the vehicle for 3 days. The compound was reconstituted as a suspension in the vehicle solution containing 2.5% DMSO, 50% PEG-400 and 47.5% DPBS. On day 3 post-infection (p.i.), the mice were bled via the retro-orbital (R.O.) route. The plasma was collected and used for measuring the viral loads in the sera (Viremia) by plaque assay. The means and standard deviations were presented. Statistical analysis was performed by an unpaired parametric test using Prism software (GraphPad). Mouse weight was carefully monitored for 12 d after infection. A two-way ANOVA with multiple comparison was performed to analyze the statistically significant difference between compound 15 and vehicle-treated groups.

CC(C)CCN1C(=O)[C@]2(CC(=O)Nc3c2nnn3[C@@H](C)c2ccc(Cl)cc2)c2cc(Cl)ccc21 [Compound 15, (R)-5'-Chloro-3-((S)-1-(4-chlorophenyl)ethyl)-1'-isopentyl-4,6-dihydrospiro[[1,2,3]triazolo[4,5-b]pyridine-7,3'-indoline]-2ʹ,5(3H)-dione]
EC50 [1]: ~100 nM | morbidity caused by DENV-2 infection (mouse body weight) [2]: eliminated the morbidity | reduction of viremia ([2]; day 3 p.i., vs vehicle, p = 0.0051): 2.4 log

Reference: patent US20230056205A1, “SUBSTITUTED 4,6-DIHYDROSPIRO[[1,2,3]TRIAZOLO[4,5-B]PYRIDINE-7,3'-INDOLINE]-2',5(3H)-DIONE ANALOGUES” (The Board of Regents of The University of Texas System, priority 2019, published 2023)
